This is one part of the list.
What was measured:
Assay in all cases: glycan array binding signal (z-score within array); higher = stronger binding
Conditions in all cases: glycan notation: IUPAC condensed, linker removed
[1] = biological target: Gal(b1-3)GlcNAc(b1-3)Gal(b1-3)GlcNAc
In short: (§1)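 The binding signal is a Z-score computed within each array. Data were drawn from 3228 arrays in the Consortium for Functional Glycomics database, restricted to those with a known protein sequence. Scores were averaged over arrays of the same protein sequence at different concentrations or buffers, and over linkers, and negative values can be taken as non-binding.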

[2] = biological target: Gal(b1-3)GlcNAc(b1-3)Gal(b1-4)Glc
In short: as §1

[3] = biological target: Gal(b1-3)GlcNAc(b1-3)Gal(b1-4)GlcNAc
In short: as §1

[4] = biological target: Gal(b1-3)[Fuc(a1-4)]GlcNAc
In short: as §1

[5] = biological target: Gal(b1-3)[Fuc(a1-4)]GlcNAc(b1-2)Man(a1-3)[Gal(b1-3)[Fuc(a1-4)]GlcNAc(b1-2)Man(a1-6)]Man(b1-4)GlcNAc(b1-4)GlcNAc
In short: as §1

[6] = biological target: Gal(b1-3)[Fuc(a1-4)]GlcNAc(b1-2)Man(a1-3)[Gal(b1-3)[Fuc(a1-4)]GlcNAc(b1-2)Man(a1-6)]Man(b1-4)GlcNAc(b1-4)[Fuc(a1-6)]GlcNAc
In short: as §1

[7] = biological target: Gal(b1-3)[Fuc(a1-4)]GlcNAc(b1-3)Gal(b1-3)[Fuc(a1-4)]GlcNAc
In short: as §1

[8] = biological target: Gal(b1-3)[Fuc(a1-4)]GlcNAc(b1-3)Gal(b1-4)GlcNAc
In short: as §1

[9] = biological target: Gal(b1-3)[Fuc(a1-4)]GlcNAc(b1-3)Gal(b1-4)[Fuc(a1-3)]GlcNAc
In short: as §1

[10] = biological target: Gal(b1-3)[GlcNAc(b1-6)]GalNAc
In short: as §1

[11] = biological target: Gal(b1-3)[Neu5Ac(a2-6)]GalNAc
In short: as §1

[12] = biological target: Gal(b1-3)[Neu5Ac(a2-6)]GlcNAc(b1-4)Gal(b1-4)Glc
In short: as §1

[13] = biological target: Gal(b1-3)[Neu5Ac(a2-6)]GlcNAc(b1-6)Gal(b1-4)Glc
In short: as §1

[14] = biological target: Gal(b1-3)[Neu5Ac(b2-6)]GalNAc
In short: as §1

[15] = biological target: Gal(b1-4)GalNAc(a1-3)[Fuc(a1-2)]Gal(b1-4)GlcNAc
In short: as §1

[16] = biological target: Gal(b1-4)GalNAc(b1-3)[Fuc(a1-2)]Gal(b1-4)GlcNAc
In short: as §1

Gal(b1-4)Glc = biological target: Gal(b1-4)Glc
In short: as §1

Gal(b1-4)Glc6S = biological target: Gal(b1-4)Glc6S
In short: as §1

Gal(b1-4)GlcNAc = biological target: Gal(b1-4)GlcNAc
In short: as §1

[17] = biological target: Gal(b1-4)GlcNAc(a1-6)Gal(b1-4)GlcNAc
In short: as §1

[18] = biological target: Gal(b1-4)GlcNAc(b1-2)Man(a1-3)Man(b1-4)GlcNAc(b1-4)GlcNAc
In short: as §1

[19] = biological target: Gal(b1-4)GlcNAc(b1-2)Man(a1-3)[Gal(b1-4)GlcNAc(b1-2)Man(a1-6)]Man(b1-4)GlcNAc(b1-4)GlcNAc
In short: as §1

[20] = biological target: Gal(b1-4)GlcNAc(b1-2)Man(a1-3)[Gal(b1-4)GlcNAc(b1-2)Man(a1-6)]Man(b1-4)GlcNAc(b1-4)[Fuc(a1-6)]GlcNAc
In short: as §1

[21] = biological target: Gal(b1-4)GlcNAc(b1-2)Man(a1-3)[Man(a1-6)]Man(b1-4)GlcNAc(b1-4)GlcNAc
In short: as §1

[22] = biological target: Gal(b1-4)GlcNAc(b1-2)Man(a1-6)Man(b1-4)GlcNAc(b1-4)GlcNAc
In short: as §1

[23] = biological target: Gal(b1-4)GlcNAc(b1-2)Man(a1-6)[Man(a1-3)]Man(b1-4)GlcNAc(b1-4)GlcNAc
In short: as §1

[24] = biological target: Gal(b1-4)GlcNAc(b1-2)[Gal(b1-4)GlcNAc(b1-4)]Man(a1-3)[Gal(b1-4)GlcNAc(b1-2)Man(a1-6)]Man(b1-4)GlcNAc(b1-4)GlcNAc
In short: as §1

[25] = biological target: Gal(b1-4)GlcNAc(b1-3)Gal(b1-3)GlcNAc
In short: as §1

[26] = biological target: Gal(b1-4)GlcNAc(b1-3)Gal(b1-4)Glc
In short: as §1

[27] = biological target: Gal(b1-4)GlcNAc(b1-3)Gal(b1-4)GlcNAc
In short: as §1

[28] = biological target: Gal(b1-4)GlcNAc(b1-3)Gal(b1-4)GlcNAc(b1-3)Gal(b1-4)GlcNAc
In short: as §1

[29] = biological target: Gal(b1-4)GlcNAc(b1-3)Gal(b1-4)[Fuc(a1-3)]GlcNAc(b1-3)Gal(b1-4)[Fuc(a1-3)]GlcNAc
In short: as §1

[30] = biological target: Gal(b1-4)GlcNAc(b1-3)GalNAc
In short: as §1

[31] = biological target: Gal(b1-4)GlcNAc(b1-3)[Gal(b1-4)GlcNAc(b1-6)]Gal(b1-4)GlcNAc
In short: as §1

[32] = biological target: Gal(b1-4)GlcNAc(b1-3)[Gal(b1-4)GlcNAc(b1-6)]GalNAc
In short: as §1

[33] = biological target: Gal(b1-4)GlcNAc(b1-3)[GlcNAc(b1-6)]Gal(b1-4)GlcNAc
In short: as §1

[34] = biological target: Gal(b1-4)GlcNAc(b1-6)Gal(b1-4)GlcNAc
In short: as §1

[35] = biological target: Gal(b1-4)GlcNAc(b1-6)Gal(b1-4)GlcNAc(b1-6)GalNAc
In short: as §1

[36] = biological target: Gal(b1-4)GlcNAc(b1-6)GalNAc
In short: as §1

[37] = biological target: Gal(b1-4)GlcNAc(b1-6)[Gal(b1-3)]GalNAc
In short: as §1

Gal3S(b1-3)GalNAc = biological target: Gal3S(b1-3)GalNAc
In short: as §1

Gal3S(b1-3)GlcNAc = biological target: Gal3S(b1-3)GlcNAc
In short: as §1

[38] = biological target: Gal3S(b1-3)[Fuc(a1-4)]GlcNAc
In short: as §1

Gal3S(b1-4)Glc = biological target: Gal3S(b1-4)Glc
In short: as §1

Gal3S(b1-4)Glc6S = biological target: Gal3S(b1-4)Glc6S
In short: as §1

B1: MVL (Microcystis viridis), Q9RHG4 (protein)
chain: MASYKVNIPAGPLWSNAEAQQVGPKIAAAHQGNFTGQWTTVVESAMSVVEVELQVENTGIHEFKTDVLAGPLWSNDEAQKLGPQIAASYGAEFTGQWRTIVEGVMSVIQIKYTF
glycan array binding signal (z-score) [1]: -0.24
glycan array binding signal (z-score) [2]: -0.237
glycan array binding signal (z-score) [3]: -0.232
glycan array binding signal (z-score) [4]: -0.232
glycan array binding signal (z-score) [5]: 0.252
glycan array binding signal (z-score) [6]: 0.237
glycan array binding signal (z-score) [7]: -0.187
glycan array binding signal (z-score) [8]: -0.202
glycan array binding signal (z-score) [9]: -0.241
glycan array binding signal (z-score) [10]: -0.237
glycan array binding signal (z-score) [11]: -0.234
glycan array binding signal (z-score) [12]: -0.206
glycan array binding signal (z-score) [13]: -0.234
glycan array binding signal (z-score) [14]: -0.236
glycan array binding signal (z-score) [15]: -0.208
glycan array binding signal (z-score) [16]: -0.253
glycan array binding signal (z-score) (Gal(b1-4)Glc): -0.234
glycan array binding signal (z-score) (Gal(b1-4)Glc6S): -0.238
glycan array binding signal (z-score) (Gal(b1-4)GlcNAc): -0.227
glycan array binding signal (z-score) [17]: -0.236
glycan array binding signal (z-score) [18]: 1.02
glycan array binding signal (z-score) [19]: 1.51
glycan array binding signal (z-score) [20]: 1.26
glycan array binding signal (z-score) [21]: 1.23
glycan array binding signal (z-score) [22]: 0.977
glycan array binding signal (z-score) [23]: 1.45
glycan array binding signal (z-score) [24]: 1.29
glycan array binding signal (z-score) [25]: -0.23
glycan array binding signal (z-score) [26]: -0.235
glycan array binding signal (z-score) [27]: -0.238
glycan array binding signal (z-score) [28]: -0.236
glycan array binding signal (z-score) [29]: -0.238
glycan array binding signal (z-score) [30]: -0.238
glycan array binding signal (z-score) [31]: -0.245
glycan array binding signal (z-score) [32]: -0.237
glycan array binding signal (z-score) [33]: -0.231
glycan array binding signal (z-score) [34]: -0.241
glycan array binding signal (z-score) [35]: -0.184
glycan array binding signal (z-score) [36]: -0.244
glycan array binding signal (z-score) [37]: -0.238
glycan array binding signal (z-score) (Gal3S(b1-3)GalNAc): -0.219
glycan array binding signal (z-score) (Gal3S(b1-3)GlcNAc): -0.239
glycan array binding signal (z-score) [38]: -0.248
glycan array binding signal (z-score) (Gal3S(b1-4)Glc): -0.232
glycan array binding signal (z-score) (Gal3S(b1-4)Glc6S): -0.232
